# The other results are listed elsewhere or left out.
# B1: MpL2 (Macrolepiota procera) (protein)
# chain: MSTQVSSGQTYKITNVKAGTVIRLSGEDNKSIIGYPYHSGKNQQWTFNWTGKAWTLRSASSGSYLGIEGTPADGTRLVAVNDPFEWHIWRDEANENAFRIFVPFTNYNLDLSGYGDTTPGTPVQLWWTWEGLHQTWTIDRP
# How the values were obtained:
# Experiment in all cases: glycan array binding signal (z-score within array); higher = stronger binding
# Conditions in all cases: glycan notation: IUPAC condensed, linker removed; mutation: D22R
# [1] = molecular target: Fuc(a1-2)Gal
# How it was run: (§1)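 Negative Z-scores can be read as non-binding. The Z-score is calculated within each array and then averaged across arrays of one protein sequence at different concentrations or buffers and across linkers. Arrays, 3228 in all, were curated from the Consortium for Functional Glycomics database and kept only where the protein sequence was available.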
# [2] = molecular target: Fuc(a1-2)Gal(b1-3)GalNAc
# How it was run: as §1
# [3] = molecular target: Fuc(a1-2)Gal(b1-3)GalNAc(a1-3)[Fuc(a1-2)]Gal(b1-4)Glc
# How it was run: as §1
# [4] = molecular target: Fuc(a1-2)Gal(b1-3)GalNAc(a1-3)[Fuc(a1-2)]Gal(b1-4)GlcNAc
# How it was run: as §1
# [5] = molecular target: Fuc(a1-2)Gal(b1-3)GalNAc(b1-3)Gal
# How it was run: as §1
# [6] = molecular target: Fuc(a1-2)Gal(b1-3)GalNAc(b1-3)Gal(a1-4)Gal(b1-4)Glc
# How it was run: as §1
# [7] = molecular target: Fuc(a1-2)Gal(b1-3)GalNAc(b1-4)[Neu5Ac(a2-3)]Gal(b1-4)Glc
# How it was run: as §1
# [8] = molecular target: Fuc(a1-2)Gal(b1-3)GlcNAc
# How it was run: as §1
# [9] = molecular target: Fuc(a1-2)Gal(b1-3)GlcNAc(b1-2)Man(a1-3)[Fuc(a1-2)Gal(b1-3)GlcNAc(b1-2)Man(a1-6)]Man(b1-4)GlcNAc(b1-4)GlcNAc
# How it was run: as §1
# [10] = molecular target: Fuc(a1-2)Gal(b1-3)GlcNAc(b1-2)Man(a1-3)[Fuc(a1-2)Gal(b1-3)GlcNAc(b1-2)Man(a1-6)]Man(b1-4)GlcNAc(b1-4)[Fuc(a1-6)]GlcNAc
# How it was run: as §1
# [11] = molecular target: Fuc(a1-2)Gal(b1-3)GlcNAc(b1-3)Gal(b1-4)Glc
# How it was run: as §1
# [12] = molecular target: Fuc(a1-2)Gal(b1-3)GlcNAc(b1-3)GalNAc
# How it was run: as §1
# [13] = molecular target: Fuc(a1-2)Gal(b1-3)GlcNAc(b1-3)[Fuc(a1-2)Gal(b1-3)GlcNAc(b1-6)]GalNAc
# How it was run: as §1
# [14] = molecular target: Fuc(a1-2)Gal(b1-3)GlcNAc(b1-3)[Gal(b1-4)GlcNAc(b1-6)]Gal(b1-4)Glc
# How it was run: as §1
# [15] = molecular target: Fuc(a1-2)Gal(b1-3)GlcNAc(b1-3)[Neu5Ac(a2-6)Gal(b1-4)GlcNAc(b1-6)]Gal(b1-4)Glc
# How it was run: as §1
# [16] = molecular target: Fuc(a1-2)Gal(b1-3)GlcNAc6S
# How it was run: as §1
# [17] = molecular target: Fuc(a1-2)Gal(b1-3)[Fuc(a1-4)]GlcNAc
# How it was run: as §1
# [18] = molecular target: Fuc(a1-2)Gal(b1-3)[Fuc(a1-4)]GlcNAc(b1-2)Man(a1-3)[Fuc(a1-2)Gal(b1-3)[Fuc(a1-4)]GlcNAc(b1-2)Man(a1-3)]Man(b1-4)GlcNAc(b1-4)GlcNAc
# How it was run: as §1
# [19] = molecular target: Fuc(a1-2)Gal(b1-3)[Fuc(a1-4)]GlcNAc(b1-2)Man(a1-3)[Fuc(a1-2)Gal(b1-3)[Fuc(a1-4)]GlcNAc(b1-2)Man(a1-6)]Man(b1-4)GlcNAc(b1-4)[Fuc(a1-6)]GlcNAc(b1-4)[Fuc(a1-6)]GlcNAc
# How it was run: as §1
# [20] = molecular target: Fuc(a1-2)Gal(b1-3)[Fuc(a1-4)]GlcNAc(b1-3)[Fuc(a1-3)[Gal(b1-4)]GlcNAc(b1-6)]Gal(b1-4)Glc
# How it was run: as §1
# [21] = molecular target: Fuc(a1-2)Gal(b1-3)[Fuc(a1-4)]GlcNAc(b1-3)[Gal(b1-4)GlcNAc(b1-6)]Gal(b1-4)Glc
# How it was run: as §1
# [22] = molecular target: Fuc(a1-2)Gal(b1-4)Fuc(a1-3)]GlcNAc(b1-2)Man(a1-3)[Fuc(a1-2)Gal(b1-4)[Fuc(a1-3)]GlcNAc(b1-2)Man(a1-6)]Man(b1-4)GlcNAc(b1-4)GlcNAc
# How it was run: as §1
# [23] = molecular target: Fuc(a1-2)Gal(b1-4)Glc
# How it was run: as §1
# [24] = molecular target: Fuc(a1-2)Gal(b1-4)Glc6S
# How it was run: as §1
# [25] = molecular target: Fuc(a1-2)Gal(b1-4)GlcNAc
# How it was run: as §1
# [26] = molecular target: Fuc(a1-2)Gal(b1-4)GlcNAc(b1-2)Man
# How it was run: as §1
# [27] = molecular target: Fuc(a1-2)Gal(b1-4)GlcNAc(b1-2)Man(a1-3)[Fuc(a1-2)Gal(b1-4)GlcNAc(b1-2)Man(a1-6)]Man(b1-4)GlcNAc(b1-4)GlcNAc
# How it was run: as §1
# [28] = molecular target: Fuc(a1-2)Gal(b1-4)GlcNAc(b1-2)Man(a1-3)[Fuc(a1-2)Gal(b1-4)GlcNAc(b1-2)Man(a1-6)]Man(b1-4)GlcNAc(b1-4)[Fuc(a1-6)]GlcNAc
# How it was run: as §1
# [29] = molecular target: Fuc(a1-2)Gal(b1-4)GlcNAc(b1-2)[Fuc(a1-2)Gal(b1-4)GlcNAc(b1-4)]Man(a1-3)[Fuc(a1-2)Gal(b1-4)GlcNAc(b1-2)Man(a1-6)]Man(b1-4)GlcNAc(b1-4)GlcNAc
# How it was run: as §1
# [30] = molecular target: Fuc(a1-2)Gal(b1-4)GlcNAc(b1-3)Gal(b1-4)GlcNAc
# How it was run: as §1
# [31] = molecular target: Fuc(a1-2)Gal(b1-4)GlcNAc(b1-3)Gal(b1-4)GlcNAc(b1-2)Man(a1-3)[Fuc(a1-2)Gal(b1-4)GlcNAc(b1-3)Gal(b1-4)GlcNAc(b1-2)Man(a1-6)]Man(b1-4)GlcNAc(b1-4)GlcNAc
# How it was run: as §1
# [32] = molecular target: Fuc(a1-2)Gal(b1-4)GlcNAc(b1-3)Gal(b1-4)GlcNAc(b1-3)Gal(b1-4)GlcNAc
# How it was run: as §1
# [33] = molecular target: Fuc(a1-2)Gal(b1-4)GlcNAc(b1-3)GalNAc
# How it was run: as §1
# [34] = molecular target: Fuc(a1-2)Gal(b1-4)GlcNAc(b1-3)[Fuc(a1-2)Gal(b1-4)GlcNAc(b1-6)]GalNAc
# How it was run: as §1
# [35] = molecular target: Fuc(a1-2)Gal(b1-4)GlcNAc(b1-3)[Fuc(a1-3)[Gal(b1-4)]GlcNAc(b1-6)]Gal(b1-4)Glc
# How it was run: as §1
# [36] = molecular target: Fuc(a1-2)Gal(b1-4)GlcNAc(b1-6)GalNAc
# How it was run: as §1
# [37] = molecular target: Fuc(a1-2)Gal(b1-4)GlcNAc6S
# How it was run: as §1
# [38] = molecular target: Fuc(a1-2)Gal(b1-4)[Fuc(a1-3)]GlcNAc
# How it was run: as §1
# [39] = molecular target: Fuc(a1-2)Gal(b1-4)[Fuc(a1-3)]GlcNAc(b1-2)Man(a1-3)[Fuc(a1-2)Gal(b1-4)[Fuc(a1-3)]GlcNAc(b1-2)Man(a1-6)]Man(b1-4)GlcNAc(b1-4)[Fuc(a1-6)]GlcNAc
# How it was run: as §1
# [40] = molecular target: Fuc(a1-2)Gal(b1-4)[Fuc(a1-3)]GlcNAc(b1-2)[Fuc(a1-2)Gal(b1-4)[Fuc(a1-3)]GlcNAc(b1-4)]Man(a1-3)[Fuc(a1-2)Gal(b1-4)[Fuc(a1-3)]GlcNAc(b1-2)Man(a1-6)]Man(b1-4)GlcNAc(b1-4)GlcNAc
# How it was run: as §1
# [41] = molecular target: Fuc(a1-2)Gal(b1-4)[Fuc(a1-3)]GlcNAc(b1-3)Gal(b1-4)[Fuc(a1-3)]GlcNAc
# How it was run: as §1
# [42] = molecular target: Fuc(a1-2)Gal(b1-4)[Fuc(a1-3)]GlcNAc(b1-3)Gal(b1-4)[Fuc(a1-3)]GlcNAc(b1-3)Gal(b1-4)[Fuc(a1-3)]GlcNAc
# How it was run: as §1
# [43] = molecular target: Fuc(a1-2)Gal(b1-4)[Fuc(a1-3)]GlcNAc(b1-3)GalNAc
# How it was run: as §1
# [44] = molecular target: Fuc(a1-2)Gal(b1-4)[Fuc(a1-3)]GlcNAc(b1-3)[Neu5Ac(a2-6)Gal(b1-4)GlcNAc(b1-6)]Gal(b1-4)Glc
# How it was run: as §1
# [45] = molecular target: Fuc(a1-2)Gal3S(b1-4)GlcNAc
# How it was run: as §1
binder,measurement,setting,value
B1,glycan array binding signal (z-score),[1],0.146
same,glycan array binding signal (z-score),[2],-0.149
same,glycan array binding signal (z-score),[3],-0.079
same,glycan array binding signal (z-score),[4],-0.287
same,glycan array binding signal (z-score),[5],0.001
same,glycan array binding signal (z-score),[6],-0.291
same,glycan array binding signal (z-score),[7],-0.083
same,glycan array binding signal (z-score),[8],-0.416
same,glycan array binding signal (z-score),[9],0.429
same,glycan array binding signal (z-score),[10],0.305
same,glycan array binding signal (z-score),[11],0.096
same,glycan array binding signal (z-score),[12],-0.233
same,glycan array binding signal (z-score),[13],-1.06
same,glycan array binding signal (z-score),[14],-0.239
same,glycan array binding signal (z-score),[15],-0.277
same,glycan array binding signal (z-score),[16],-0.404
same,glycan array binding signal (z-score),[17],-0.365
same,glycan array binding signal (z-score),[18],-0.016
same,glycan array binding signal (z-score),[19],0.051
same,glycan array binding signal (z-score),[20],0.071
same,glycan array binding signal (z-score),[21],-0.182
same,glycan array binding signal (z-score),[22],1.6
same,glycan array binding signal (z-score),[23],-0.454
same,glycan array binding signal (z-score),[24],-0.129
same,glycan array binding signal (z-score),[25],-0.202
same,glycan array binding signal (z-score),[26],0.129
same,glycan array binding signal (z-score),[27],-0.213
same,glycan array binding signal (z-score),[28],0.543
same,glycan array binding signal (z-score),[29],-0.152
same,glycan array binding signal (z-score),[30],-0.598
same,glycan array binding signal (z-score),[31],-0.172
same,glycan array binding signal (z-score),[32],-0.053
same,glycan array binding signal (z-score),[33],-0.073
same,glycan array binding signal (z-score),[34],0.046
same,glycan array binding signal (z-score),[35],0.805
same,glycan array binding signal (z-score),[36],-0.275
same,glycan array binding signal (z-score),[37],-0.327
same,glycan array binding signal (z-score),[38],-0.054
same,glycan array binding signal (z-score),[39],0.51
same,glycan array binding signal (z-score),[40],0.835
same,glycan array binding signal (z-score),[41],-0.078
same,glycan array binding signal (z-score),[42],-0.242
same,glycan array binding signal (z-score),[43],0.928
same,glycan array binding signal (z-score),[44],-0.447
same,glycan array binding signal (z-score),[45],0.107
